Source: patent US8455252B2, “Materials and methods for sensitizing multidrug resistant cells” (Indiana University Research and Technology Corp., priority 2008, dated 2013)

Key:
[1] = target: T1, ABCG2 (Homo sapiens, UniProt Q9UNQ0); assay: Western blot of ABCG2 level and degradation in HEK293/ABCG2 cells
T1 sequence (Q9UNQ0 1-655): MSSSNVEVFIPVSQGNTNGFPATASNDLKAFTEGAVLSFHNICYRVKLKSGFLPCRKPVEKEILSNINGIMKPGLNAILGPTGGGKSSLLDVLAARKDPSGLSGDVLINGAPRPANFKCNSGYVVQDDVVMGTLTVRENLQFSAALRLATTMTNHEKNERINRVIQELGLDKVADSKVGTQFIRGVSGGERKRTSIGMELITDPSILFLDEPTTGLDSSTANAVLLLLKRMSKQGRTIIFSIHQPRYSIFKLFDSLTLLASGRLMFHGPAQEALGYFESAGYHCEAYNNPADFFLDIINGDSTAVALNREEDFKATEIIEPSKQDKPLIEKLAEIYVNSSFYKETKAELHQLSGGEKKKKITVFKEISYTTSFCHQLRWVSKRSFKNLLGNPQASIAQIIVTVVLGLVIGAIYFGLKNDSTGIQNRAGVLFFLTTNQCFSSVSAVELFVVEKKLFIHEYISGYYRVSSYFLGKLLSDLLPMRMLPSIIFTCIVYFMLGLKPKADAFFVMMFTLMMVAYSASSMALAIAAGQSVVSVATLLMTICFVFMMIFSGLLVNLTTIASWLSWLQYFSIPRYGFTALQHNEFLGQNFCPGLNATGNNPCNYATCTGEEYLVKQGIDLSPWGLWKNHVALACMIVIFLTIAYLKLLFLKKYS
Description: Western blot, immunoprecipitation, and flow cytometry.
(§1) Then, the cells were washed 3 times and incubated with Phycoerythrin-Streptavidin for 30 min followed by washing for 3 times and analysis by flow cytometry.
Samples were taken at times before exposure of cells (control) and 24, 48 and 72 hours after exposure in the top 3 panels, and before, 2, 24 and 48 hours after exposure (bottom panel).

[2] = target: T1, ABCG2; assay: Sensitization of mitoxantrone resistance in HEK293/ABCG2 cells, SRB assay; conditions: for SI (sensitization index): HEK293/ABCG2, mitoxantrone
Description: (§2) The potency and sensitization index of the inhibitors were calculated as follows: Potency index=IC50(inhibitor)/IC50(inhibitor+drug) Sensitization index=IC50(drug+inhibitor)/IC50(drug)

[3] = test system: HEK293/ABCG2 cells; assay: Cytotoxicity of inhibitor alone, SRB assay
[4] = target: ABCB1 (Homo sapiens, UniProt P08183); assay: ABCB1-mediated adriamycin accumulation and ABCB1 level in BC19 cells; conditions: data not shown
[5] = test system: MCF7 and vector-transfected HEK293 cells; assay: Mitoxantrone accumulation in control cells that do not express ABCG2; conditions: control MCF7 and vector-transfected HEK293, 3.8 μM
[6] = target: ABCC1 (Homo sapiens, UniProt P33527); assay: ABCC1-mediated adriamycin accumulation and ABCC1 level in HEK293/ABCC1 cells; conditions: data not shown
[7] = test system: ABCG2 mRNA; assay: Real-time RT-PCR of ABCG2 mRNA; type: cell-based, human; conditions: MCF7/AdVp3000 and HEK293/ABCG2, up to 3 days
Description: Real time RT-PCR and Cytotoxicity assay. RNA extraction and real-time RT-PCR were performed as we described previously (Cancer Res 66, 3248-55 (2006)). The sequences of ABCG2 primers are 5′-[…]-3′ (forward) SEQ. ID. No. 1 and 5′-[…]-3′ (reverse) SEQ. ID. No 2. The sequences of GAPDH primers are 5′-[…]-3′ (forward) SEQ. ID. No 3, and 5′-[…]-3′ (reverse) SEQ. ID. No 4. The relative ABCG2 RNA level (2^ΔCT) treated with inhibitors was expressed as percentage of the control (in the presence of 0.1% DMSO) where ΔCT (threshold cycle)=(CTABCG2−CTGAPDH).

[8] = in vitro; conditions: human, HEK293/ABCG2 cells
[9] = target: T2, ABCG2 (Homo sapiens, UniProt Q9UNQ0, R482T); conditions: MCF7/AdVp3000, 200 nM inhibitor
T2 sequence (Q9UNQ0 1-655 R482T): T1 sequence (Q9UNQ0 1-655) with R482T
Description: as §2
Data was collected using the SRB assay. […] The data shown are mean±SD of three independent experiments.

[10] = target: T1, ABCG2; assay: 5D3 antibody staining (ABCG2 conformation), flow cytometry; conditions: HEK293/ABCG2, 10 μM, 30 min
Description: as §1

[11] = target: T1, ABCG2; assay: Mitoxantrone accumulation in ABCG2-transfected HEK293 cells (flow cytometry); conditions: HEK293/ABCG2, 10 μM

UniProt P33527, sequence (P33527 whole entry): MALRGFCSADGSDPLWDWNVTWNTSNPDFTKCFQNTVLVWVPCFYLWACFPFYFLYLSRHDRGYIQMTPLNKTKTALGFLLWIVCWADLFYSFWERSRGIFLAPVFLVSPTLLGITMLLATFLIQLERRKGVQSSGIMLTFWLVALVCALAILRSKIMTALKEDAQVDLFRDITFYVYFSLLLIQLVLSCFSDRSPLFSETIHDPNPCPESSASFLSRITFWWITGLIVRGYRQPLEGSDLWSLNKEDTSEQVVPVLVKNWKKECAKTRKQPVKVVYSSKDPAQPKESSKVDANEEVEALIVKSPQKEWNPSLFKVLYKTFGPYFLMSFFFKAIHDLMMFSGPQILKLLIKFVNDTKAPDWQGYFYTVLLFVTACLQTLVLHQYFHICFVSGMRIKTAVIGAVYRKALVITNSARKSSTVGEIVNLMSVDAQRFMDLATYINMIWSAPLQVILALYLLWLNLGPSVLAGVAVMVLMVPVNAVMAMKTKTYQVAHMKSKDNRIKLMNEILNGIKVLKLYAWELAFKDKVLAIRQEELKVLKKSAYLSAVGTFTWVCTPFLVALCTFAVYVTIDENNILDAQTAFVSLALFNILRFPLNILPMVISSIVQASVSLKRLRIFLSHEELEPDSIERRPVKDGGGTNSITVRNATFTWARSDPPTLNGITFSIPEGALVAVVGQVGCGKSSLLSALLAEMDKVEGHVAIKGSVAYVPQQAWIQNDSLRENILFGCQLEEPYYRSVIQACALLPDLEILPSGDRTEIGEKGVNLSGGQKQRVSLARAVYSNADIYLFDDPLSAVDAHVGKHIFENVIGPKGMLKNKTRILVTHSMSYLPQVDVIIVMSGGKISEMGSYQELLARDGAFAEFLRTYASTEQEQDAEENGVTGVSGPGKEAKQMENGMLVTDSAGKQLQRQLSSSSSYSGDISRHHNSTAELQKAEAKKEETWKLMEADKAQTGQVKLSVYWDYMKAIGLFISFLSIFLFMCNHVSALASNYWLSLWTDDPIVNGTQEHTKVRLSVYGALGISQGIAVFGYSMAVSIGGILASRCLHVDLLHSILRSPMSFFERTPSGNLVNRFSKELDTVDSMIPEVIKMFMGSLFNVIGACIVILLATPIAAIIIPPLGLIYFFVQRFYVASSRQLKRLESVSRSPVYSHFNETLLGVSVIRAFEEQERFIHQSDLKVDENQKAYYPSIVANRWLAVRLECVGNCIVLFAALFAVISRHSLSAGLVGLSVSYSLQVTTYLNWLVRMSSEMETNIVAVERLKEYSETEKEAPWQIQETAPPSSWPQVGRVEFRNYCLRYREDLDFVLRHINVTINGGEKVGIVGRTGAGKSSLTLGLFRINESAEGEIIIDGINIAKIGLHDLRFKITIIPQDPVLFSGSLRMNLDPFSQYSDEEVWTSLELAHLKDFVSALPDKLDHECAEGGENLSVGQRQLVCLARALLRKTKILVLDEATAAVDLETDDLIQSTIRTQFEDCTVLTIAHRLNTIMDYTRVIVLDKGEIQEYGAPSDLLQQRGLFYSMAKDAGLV
UniProt P08183, sequence (P08183 whole entry): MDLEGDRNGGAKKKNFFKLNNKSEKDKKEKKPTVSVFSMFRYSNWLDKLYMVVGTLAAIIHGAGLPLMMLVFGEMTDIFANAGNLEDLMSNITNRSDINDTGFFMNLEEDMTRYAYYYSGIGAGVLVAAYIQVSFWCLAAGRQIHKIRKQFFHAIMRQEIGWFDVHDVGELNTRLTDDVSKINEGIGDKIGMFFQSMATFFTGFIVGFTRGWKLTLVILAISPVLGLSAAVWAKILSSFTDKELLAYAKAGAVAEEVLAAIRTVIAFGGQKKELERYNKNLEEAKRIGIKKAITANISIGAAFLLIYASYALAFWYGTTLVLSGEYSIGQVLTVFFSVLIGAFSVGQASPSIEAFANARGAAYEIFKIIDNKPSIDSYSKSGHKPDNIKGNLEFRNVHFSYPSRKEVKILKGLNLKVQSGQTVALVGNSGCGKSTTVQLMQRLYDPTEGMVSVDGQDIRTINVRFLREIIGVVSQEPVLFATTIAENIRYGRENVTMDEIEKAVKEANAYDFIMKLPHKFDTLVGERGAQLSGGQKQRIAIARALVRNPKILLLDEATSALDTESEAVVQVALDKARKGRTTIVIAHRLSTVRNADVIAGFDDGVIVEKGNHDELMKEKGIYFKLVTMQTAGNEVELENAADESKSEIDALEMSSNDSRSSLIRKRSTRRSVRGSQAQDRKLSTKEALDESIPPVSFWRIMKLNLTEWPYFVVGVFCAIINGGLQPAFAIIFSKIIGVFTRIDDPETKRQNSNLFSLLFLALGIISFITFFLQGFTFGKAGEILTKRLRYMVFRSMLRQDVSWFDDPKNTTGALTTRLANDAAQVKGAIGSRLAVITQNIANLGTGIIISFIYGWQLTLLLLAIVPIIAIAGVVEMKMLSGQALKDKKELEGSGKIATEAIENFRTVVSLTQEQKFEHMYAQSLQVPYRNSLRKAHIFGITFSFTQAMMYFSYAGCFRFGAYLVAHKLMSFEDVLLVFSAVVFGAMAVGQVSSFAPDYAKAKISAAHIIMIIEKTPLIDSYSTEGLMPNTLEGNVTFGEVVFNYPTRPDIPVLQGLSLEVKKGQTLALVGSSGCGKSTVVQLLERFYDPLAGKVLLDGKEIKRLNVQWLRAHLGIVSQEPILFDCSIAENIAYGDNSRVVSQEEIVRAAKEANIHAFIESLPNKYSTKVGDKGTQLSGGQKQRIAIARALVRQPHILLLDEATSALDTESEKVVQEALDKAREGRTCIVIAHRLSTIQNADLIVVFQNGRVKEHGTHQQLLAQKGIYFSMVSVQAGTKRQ

SMILES: CO/C1=C\C(C)=C\[C@@H](C)[C@@H](O)[C@@H](C)C/C(C)=C/C=C/[C@H](OC)[C@@H]([C@@H](C)[C@@H](O)[C@H](C)[C@@]2(O)C[C@@H](O)[C@H](C)[C@@H](C(C)C)O2)OC1=O [bafilomycin A1]
- effect on PZ-39-induced ABCG2 degradation [1]: inhibited PZ-39-induced ABCG2 degradation

SMILES: COc1ccc(OC)c(NC(=O)CSC2=N/C(=C/c3ccc(N(C)C)cc3)C(=O)N2c2ccccc2)c1 [PZ-38]
- IC50 [2]: ~0.045 µM
- cytotoxicity ([3]; HEK293/ABCG2, concentrations up to 10 μg/ml): not cytotoxic
- ABCB1-mediated drug efflux [4]: no effect
- drug accumulation in control cells [5]: no measurable effect
- ABCC1-mediated drug efflux [6]: no effect

SMILES: O=C(CSc1nc2ccc(Nc3nc(N4CCOCC4)nc(N4CCOCC4)n3)cc2s1)Nc1ccc(Cl)cc1 [PZ-39, N-(4-chlorophenyl)-2-[(6-{[4,6-di(4-morpholinyl)-1,3,5-triazin-2-yl]amino}-1,3-benzothiazol-2-yl)sulfanyl]acetamide]
- ABCG2 mRNA levels [7]: No significant changes
- IC50 [8]: > 25 µM

SMILES: COc1ccc2c3c([nH]c2c1)[C@H](C=C(C)C)N1C(=O)[C@@H]2CCCN2C(=O)[C@@H]1C3 [FTC, Fumitremorgin C]
- SI (sensitization index) ([2]; 50 nM inhibitor): 0.85
- SI (sensitization index) ([2]; 200 nM inhibitor): 0.46
- Potency Index ([2]; ratio of inhibitor IC50 in absence and presence of mitoxantrone): ~76
- resistance to adriamycin, camptothecin and mitoxantrone (sensitization) [9]: much lower sensitization effect
- level of ABCG2 ([1]; HEK293/ABCG2, 10 μM, 24-72 hours): did not affect the level of ABCG2
- 5D3 staining / conformational change of ABCG2 [10]: increased 5D3 staining
- IC50 ([3]; read-out: IC50 Inhibitor alone, HEK293/ABCG2 cells, no mitoxantrone): ~25 µM and 25 µM
- intracellular mitoxantrone accumulation [11]: achieved similar level of effect

Where a chain is given by its changes, count along the chain named. Several values for one entry are separate records, joined by “and”; a condition that tells them apart may be missing. Equal entries are not always repeated.
